# Measurements: the supplement of paper PMC11417369
# The list shows a part of the results.
# Test system: PF3D7_0420300 AP2 domain 1 (GST-tagged)
# Test: gcPBM binding intensity (ln(normalized median fluorescence intensity)); higher = stronger DNA binding
# Method in brief: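 GST-fused DNA-binding domains of P. falciparum, expressed in E. coli, were applied at about 25 μg on average for 1 h to an Agilent 4 × 180k array of primer-extended double-stranded 36-bp intergenic genomic probes and negative controls. Binding intensity is the highest Masliner-normalised natural-log median intensity across replicate spots of either probe orientation, measured with Alexa488 anti-GST antibody and a 488 nm scan.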
row,Sequence,gcPBM binding intensity (ln)
1,AGGTAGAAAAAAGACACACACATTATATATATATAT [CACACA_site4367],9.8
2,ATATGCTACATTATATGTACACACATATACATATAT [XGTACX_site1656],9.51
3,TAATATAAAGAAATATCAATAATTTGGGCAAATGCC [GTGCAC_negctrl_site621],9.1
4,TTTTATGCATGTGAAGTGCAAAATAAAAAATAAAAT [GTGCAC_site9612],9.14
5,TATATTTGTTAATTTTGTACGTATGGATATACATAA [XGTACX_site5100],9.19
6,TATAAATATAGAATTACACACAATGTTCTATAAATA [CACACA_site7508],9.36
7,GATATGTTTTCCTAGGTTCATGATGATAGGTAGTTT [XGTACX_negctrl_site217],9.57
8,TTTGTGGTTACATGTGCACACACTTATTTCGTTCTT [CACACA_site1435],9.8
9,AATATATAAATTGACACACACATATATACATATATA [CACACA_site1213],9.79
10,TGTTAATATATCATTATGTTATAGGTTCAGCTGGGA [CACACA_negctrl_site401],9.05
11,TATTTACATTTATGTGCACACATTCCATTTGAAAGT [CACACA_site1954],9.38
12,CGGACATACATAGGAACATGCAAAATTTTTTATTTT [TGCATGCA_site575],9.18
13,AATAGAAAAAAAAAATGTACACATATAAAAGCATAT [XGTACX_site6306],9.77
14,TATTTTCTTTTTCTTGTACACACATAATATGGATGA [CACACA_site8168],9.53
15,ATACATATATACATATGTACATATATATATATATAT [XGTACX_site8206],9.3
16,AAAAAAATAATTTGTAGTACGATTCAATGAAAAGGC [XGTACX_site1287],9.53
17,CCCACAAAGGAATATACACACATATATATATATATA [CACACA_site4091],9.4
18,TAAATATTTTTTTAGACACACATATATCTATGATAT [CACACA_site1107],9.11
19,TTGAAAATGAAAAAATGTACTTAAAAAAAAGGAACA [XGTACX_site8664],9.54
20,TCTTTGAATTTTTTAACACACACATGGGTGGATATA [CACACA_site8474],9.53
21,ATAAAATTGTATAACTGTACATATATATATATATAT [XGTACX_site5596],9.26
22,ATGCTATATTAAAAACGTACAAACTGTTTAGAAAAA [XGTACX_site8943],9.12
23,GGATATAACAGACACACACACACATATAAATATATT [CACACA_site7866],10.1

row,Sequence,gcPBM binding intensity (ln)
1,TTTTTTCTTAAAGACATATATTTATTTGGTAAAACA [XGTACX_negctrl_site243],8.85
2,CAAAATAAAAATTAATGTACATAAAAAATGAATATA [XGTACX_site1085],9.39
3,ACAGGAAAAAACAATTGTACATGTATATATATATAT [XGTACX_site7677],9.58
4,ATATATATATATATATGTACATATTTTATTTGAAAT [XGTACX_site7411],9.1
5,AAGACAATATATGCAGTGCATATACATACATATATA,9.18
6,GCATAATATACTCTTACACACCATTTCTAAATACAT [CACACA_site4912],9.76
7,AAAAAAAAAAAAAAAAGTACGTATTTTTTTTAAAAT [XGTACX_site2654],8.91
8,TTGTTATATTACAGTAGTACATTTAAAATCTACTAC [XGTACX_site2620],9.05
9,TTTTTTTTTTTTTTTTGTACGTAAAAAAATATATAC [XGTACX_site1290],8.75
10,AATATTTATACTATAACACACATACAGACAAAAAAA [CACACA_site6396],9.7
11,TTACATTATATACATACACACCCACCCACAAAAAAA [CACACA_site8187],10.1
12,ATTTTTATTTACAACCCCAAAAAGGAAAAACATAAA [CACACA_negctrl_site1169],9.17
13,ATAATATCATCAAACGCACACATACATAAATATATT [CACACA_site5230],9.55
14,ACATATTATATGAATACACACAAAAACTTATCGGTA [CACACA_site3439],9.79
15,TATTTTTATAATATATGTACATATATATATATATTA [XGTACX_site5343],9.17
16,AAATAATTAGAAATAGTGCACATAATTAAGGGATAC,9.74
17,TAGAAATATATAAATTGTACATGTTTGTATAATATA [XGTACX_site2097],9.22
18,TGGATTTTGTATTAATGTACATATATATATATATAT [XGTACX_site4442],9.29
19,TATATTATTTATTAGACACACATTATTAATATATTT [CACACA_site1078],9.28
20,AACAACATTTTGTAATGTACATATTTACTTATATTC [XGTACX_site7251],9.15
21,CAGATAGACTTATATGCATGCATTCACATACCAACA [TGCATGCA_site163],9.27
22,GGTTAACATAAATATATACACACCAATGATGGCATT [CACACA_site1568],9.36
23,TGAAAAGTAAAATACACACACATAATCTAATTTATA [CACACA_site7024],9.65

row,Sequence,gcPBM binding intensity (ln)
1,CCTCTTAATATGTGCACACTAAATTATAACATAATT [CACACA_site3259],9.37
2,TATTTGTTTTTATATAGTACATAAATATATATATAT [XGTACX_site7834],9.28
3,AAAATAAATATGAACACACACATTTATGCCTTTAAA [CACACA_site1271],9.66
4,TATATACAAAAAATATGTACATATATATATATATAT [XGTACX_site3497],9.21
5,AGAGATATAAGAAAAGCACACACACCCAAAAAAAAA [CACACA_site8917],9.92
6,AAAAAATAAATAAATACACACACACTAATATATATA [CACACA_site8488],10.1
7,ATTATTTATATTATGGTGCATAATTTTGGGTTTCTT,9.57
8,TATATTATTTATTTTTGTACATATTATGAATGAATA [XGTACX_site3971],9.1
9,TTACCTTTAAATGGATGTACAGAAATTTAAATTGTT [XGTACX_site7044],9.07
10,CTTCCTTCTAAATGCACACGGAAAGTATAAATGTAT [CACACA_site2501],9.25
11,TTTTTTTTTTTAAATACATGCATGTCCTATTTAAAT [TGCATGCA_site494],9.07
12,TTTTTTTGATAAAAGGTGCTACAAGATGAATACATA,9.04
13,ATAAATAAAAAAAAAAAAAAAAAAAAAAAAAAAATA [CACACA_negctrl_site1064],9.26
14,GTTGTATAAAATAATACATGCATGTCCTACATATAT [TGCATGCA_site162],9.5
15,GTAATATATTTTTATGGTACACGAACTAGCCAAAAA [XGTACX_site6307],9.27
16,TAATATATTTATAAGTGTACACATTATATAAATCCC [XGTACX_site8875],9.25
17,CCGCATTTTACAGACACACACAATTTATATTACGGT [CACACA_site6974],9.61
18,AGTAATAACTATATATGTACATATATATATTATTAG [XGTACX_site1113],9.23
19,TCAGAGTGAAGTTATACACACATGGTTTTTTTTTTT [CACACA_site2116],9.47
20,AGAGAGAAAGCTATAACATGCAACAATTTTTAGAAA [TGCATGCA_site95],9.27
21,AGGAGGATATTACACAGTACCCAGTAACTCTACGGA [XGTACX_site1998],9.2
22,AAGTATGCGTTATATACACACATACATTTATATATC [CACACA_site6207],9.47
23,TTCTAATATTTACATAATATATAGAAATATAAAGGT [XGTACX_negctrl_site504],9.15

row,Sequence,gcPBM binding intensity (ln)
1,AAATATAAACTCAGCACACAAACATATATATGTCAT [CACACA_site4004],9.65
2,TTTTTTTTTTTTTCTCGTACAAAATAATACCTTTTT [XGTACX_site3867],8.91
3,ATGGTATAAAAAAATACACACTTATATATATTCTTA [CACACA_site4427],9.36
4,GTAGACATTATAATGGTGCAAAAAAATTAACAAAAA [GTGCAC_site9891],9.17
5,AAAAAAAACGGACACACACACATACAAAATATATAT [CACACA_site4910],10.2
6,AGGGAATATTTTTATGCATGTGCTTACACATTACAA [TGCATGCA_site830],9.24
7,AAAAAAAAAAAAAAAAAAAAATATATATATATATAT [GTGCAC_negctrl_site426],9.06
8,AAAAGTATAATAAATTGTACTAACAAATATTTATGT [XGTACX_site7721],9.26
9,TAAAATTTTGTTTGTTGTACTTATTTTCGTGTCAAC [XGTACX_site8277],9.22
10,AAAGATGAATTTTTTACACACACCATTTTATAATAT [CACACA_site3676],9.75
11,AATGTAAAACCTCCTACACACACCAATTAACTATTC [CACACA_site2112],9.84
12,TACTTATCGTTAAATTGTACTAAAAAATATTTTTCT [XGTACX_site4665],9.17
13,AAAAAAGAAGAGCACACACACATATATAAATATAAA [CACACA_site631],10
14,TTATAATAAAAGGCTTTACAATTATTAAACAAATAA [GTGCAC_negctrl_site480],8.98
15,GCCATTGTACCATCCACACACATATATATCTGTATA [CACACA_site5490],10.1
16,TGGTATTAAGGAGAGGGTACAAAAAAAAAAAAAAAA [XGTACX_site1668],8.65
17,TATATATATATATATACACACATATATATATTTTTC [CACACA_site3983],9.35
18,AATTTAAAGAATTGTAGTACAATGAAATATATATAA [XGTACX_site7970],9.22
19,CATTAAACCGTGGGAGCACACACACCCACCCACCCA [CACACA_site8000],9.87
20,ATCATTATATTATGGTGTACCCATATATAATTATCA [XGTACX_site551],9.19
